This passage reports cytotoxicity call and growth inhibition call results from the antibiotic and cytotoxicity screens of Wong et al. (2023).

This is one part of the list.

One experiment deals with HSkMC. Description: cytotoxicity call (relative viability < 0.9). Conditions: 10 µM.
For the next experiment, the system named is HepG2. In words: cytotoxicity call (relative viability < 0.9). The following applies: 10 µM.
Another experiment deals with S. aureus RN4220. In words: growth inhibition call (relative growth <= 0.2). Conditions: 50 µM.

`COCC(=O)N1C[C@H](C)[C@H](OC)CN(C)C(=O)c2cc(NC(=O)c3ccc(F)cc3)ccc2OC[C@H]1C`: the cytotoxicity call in the experiment on HSkMC and with HepG2 was “inactive” in each case. Moreover, the growth inhibition call in the experiment with S. aureus RN4220 was “inactive”.

In the case of `COc1cc(OC)c2ccc(=O)oc2c1`, the cytotoxicity call in the experiment with HSkMC and in the experiment on HepG2 was “inactive” each time. In the experiment with S. aureus RN4220, the growth inhibition call was “inactive”.

In the case of `CCOC(=O)C1CCN(c2cn[nH]c(=O)n2)CC1`, the cytotoxicity call with HSkMC and in the experiment with HepG2 was “inactive” throughout. In addition, in the experiment with S. aureus RN4220, the growth inhibition call is “inactive”.

Consider `COc1ccc([Si](C)(C)[C@@H]2[C@@H](CCn3cc(CCO)nn3)O[C@]3(C(=O)N(Cc4ccc(N5C(=O)c6cccc7cccc5c67)cc4)c4ccccc43)[C@H]2C)cc1`, for which the cytotoxicity call with HSkMC and in the experiment on HepG2 was “active” each time. Also, in the experiment on S. aureus RN4220, the growth inhibition call was “inactive”.

Turning to `C[C@@H]1CN([C@H](C)CO)C(=O)c2cccc(NC(=O)Nc3ccc4c(c3)OCO4)c2O[C@@H]1CN(C)Cc1ccc(Cl)c(Cl)c1`, the cytotoxicity call in the experiment with HSkMC and in the experiment on HepG2 was “inactive” throughout. Also, the growth inhibition call in the experiment on S. aureus RN4220 was “inactive”.

Take `COc1ccc([Si](C)(C)[C@H]2[C@H](CC(=O)N3CCC[C@H]3CO)O[C@@]3(C(=O)N(Cc4cccc(N5C(=O)COc6ccccc65)c4)c4ccccc43)[C@@H]2C)cc1`: the cytotoxicity call in the experiment with HSkMC and in the experiment with HepG2 was “inactive” throughout. In addition, in the experiment on S. aureus RN4220, the growth inhibition call is “inactive”.

With `CC1=CC(C)(C)N(C(=O)Nc2ccc(C)cc2)c2ccccc21`, the cytotoxicity call in the experiment with HSkMC and in the experiment on HepG2 was “inactive” throughout. For the same molecule, in the experiment with S. aureus RN4220, the growth inhibition call is “inactive”.

As to `C[C@H](O)C#Cc1cnc2c(c1)C(=O)N([C@H](C)CO)C[C@@H](C)[C@@H](CN(C)Cc1cncnc1)O2`, the cytotoxicity call in the experiment on HSkMC and in the experiment on HepG2 was “inactive” each time. In the experiment with S. aureus RN4220, the growth inhibition call is “inactive”.

In the case of `COc1ccc(CN(C)C[C@H]2OCCCC[C@@H](C)Oc3ccc(NC(=O)c4ccncc4)cc3C(=O)N([C@H](C)CO)C[C@@H]2C)cc1`, the cytotoxicity call with HSkMC and in the experiment on HepG2 was “inactive” in each case. Further, the growth inhibition call in the experiment on S. aureus RN4220 is “inactive”.

For the molecule `C[C@H]1CN([C@@H](C)CO)C(=O)c2cc(C#Cc3cccnc3)cnc2O[C@@H]1CN(C)S(C)(=O)=O`, the cytotoxicity call in the experiment with HSkMC and in the experiment on HepG2 was “inactive” each time. The growth inhibition call in the experiment with S. aureus RN4220 was “inactive”.

As to `C[C@@H]1CN([C@H](C)CO)S(=O)(=O)c2ccc(C#Cc3ccncc3)cc2O[C@H]1CN(C)C(=O)C1CCCCC1`, in the experiment with HSkMC, the cytotoxicity call was “inactive”. Moreover, the cytotoxicity call in the experiment on HepG2 was “active”. Besides, the growth inhibition call in the experiment with S. aureus RN4220 is “inactive”.

For `COc1ccc(S(=O)(=O)Nc2ccc3c(c2)C(=O)N([C@@H](C)CO)C[C@H](C)[C@@H](CN(C)C(=O)Nc2ccc4c(c2)OCO4)OCCCC[C@H](C)O3)cc1`, the cytotoxicity call with HSkMC and in the experiment with HepG2 was “inactive” each time. For the same molecule, the growth inhibition call with S. aureus RN4220 is “inactive”.

Take `COc1ccc(CN(C)C[C@@H]2OCCCC[C@H](C)Oc3ccc(NC(=O)Nc4c(C)noc4C)cc3C(=O)N([C@@H](C)CO)C[C@H]2C)cc1`: the cytotoxicity call with HSkMC and in the experiment on HepG2 was “inactive” each time. For the same molecule, the growth inhibition call with S. aureus RN4220 was “inactive”.

As for `CCc1nc2ccc(C(=O)NCc3ccc(OC)cc3)cn2c1N(CC)Cc1cccc(Br)c1`, the cytotoxicity call in the experiment on HSkMC (human skeletal muscle cells) and with HepG2 was “inactive” in each case. In addition, the growth inhibition call in the experiment with S. aureus RN4220 is “inactive”.
